According to paper PMC4336329 (PLoS ONE, 2015):
Screen size: about 310,000 compounds; about 14,000 (4.5%) showed an effect of 50% or more. The effect is printed as a negative number. The list shows a part of the results.

target: human ether-à-go-go-related gene (hERG) potassium channel (human, UniProt Q12809); experiment: primary screen, population patch clamp on CHO cells stably expressing hERG
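Note: peak tail current of the secondary pulse compared with the same well before compound.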

human ether-à-go-go-related gene (hERG) potassium channel, sequence (Q12809 whole entry, looked up): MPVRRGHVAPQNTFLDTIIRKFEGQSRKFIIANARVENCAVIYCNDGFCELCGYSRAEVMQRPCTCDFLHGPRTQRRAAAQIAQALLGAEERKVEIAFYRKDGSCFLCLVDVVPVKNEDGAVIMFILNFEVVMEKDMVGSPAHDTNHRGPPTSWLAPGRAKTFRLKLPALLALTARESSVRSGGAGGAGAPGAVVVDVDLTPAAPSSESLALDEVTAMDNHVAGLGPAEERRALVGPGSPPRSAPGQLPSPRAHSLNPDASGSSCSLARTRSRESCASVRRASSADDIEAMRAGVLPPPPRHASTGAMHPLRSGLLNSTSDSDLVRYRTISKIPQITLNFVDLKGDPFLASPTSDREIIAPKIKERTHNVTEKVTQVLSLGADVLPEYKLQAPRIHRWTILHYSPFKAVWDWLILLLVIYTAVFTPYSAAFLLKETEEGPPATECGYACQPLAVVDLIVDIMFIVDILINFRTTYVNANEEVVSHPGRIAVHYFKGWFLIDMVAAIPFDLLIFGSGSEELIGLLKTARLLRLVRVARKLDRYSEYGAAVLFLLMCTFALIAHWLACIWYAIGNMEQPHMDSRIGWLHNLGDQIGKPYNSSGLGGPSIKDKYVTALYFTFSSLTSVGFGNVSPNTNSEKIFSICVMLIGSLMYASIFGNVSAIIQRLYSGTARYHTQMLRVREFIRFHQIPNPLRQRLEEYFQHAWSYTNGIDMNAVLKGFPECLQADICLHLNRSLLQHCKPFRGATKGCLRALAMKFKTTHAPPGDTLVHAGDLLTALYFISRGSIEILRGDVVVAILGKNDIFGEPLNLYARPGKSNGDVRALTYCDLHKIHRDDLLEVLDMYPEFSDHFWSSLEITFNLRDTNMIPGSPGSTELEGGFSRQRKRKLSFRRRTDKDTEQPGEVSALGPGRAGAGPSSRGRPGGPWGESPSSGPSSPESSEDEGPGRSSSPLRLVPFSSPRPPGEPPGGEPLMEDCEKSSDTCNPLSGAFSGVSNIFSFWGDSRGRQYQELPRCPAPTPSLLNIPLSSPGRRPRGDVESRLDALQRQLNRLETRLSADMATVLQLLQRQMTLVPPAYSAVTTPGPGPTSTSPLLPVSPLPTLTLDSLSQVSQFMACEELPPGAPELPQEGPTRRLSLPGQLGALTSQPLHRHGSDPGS

Row | Structure (SMILES) | hERG current change (%, negative = inhibition) at 10uM [%]
1 | O=C(NC1CCCN(Cc2ccccc2F)C1)C1CCC1 (centres unmarked) | 13.6
2 | COc1cccc(NC(=O)CN(C)S(=O)(=O)c2ccc3c(c2)CCC(=O)N3)c1 | -29.9
3 | COc1ccccc1CNC(=O)C1CCC(CNS(=O)(=O)c2cccc3cccnc23)CC1 (centres unmarked) | 19.7
4 | CC1CCCN(CCCNC(=O)c2cc3c(s2)-c2ccccc2OC3)C1 (centres unmarked) | -76.4
5 | CC1CCCC(C)N1C(=O)Cn1c(SCC(=O)NCc2ccc3c(c2)OCO3)nc2ccccc21 (centres unmarked) | -46.4
6 | COc1cc(C(=O)NCC2CCCO2)ccc1OCc1c(C)noc1C (centres unmarked) | 10.7
7 | CCOC(=O)N1CCN(C(=O)c2cnc(Nc3ccccc3OC)c3ccccc23)CC1 | -26.7
8 | CC(NC(=O)c1cc2c(s1)CCCC2)C(C)(C)C (centres unmarked) | -7.13
9 | C/C(CCc1ccco1)=N\NC(=O)CNc1c(Br)cc(Br)cc1Br | 37.6
10 | CN1CCc2c(C#N)c(N3CCCCC3)nc(NCc3ccccc3)c2C1 | -2.02
11 | CCOC(=O)N1CCN(C(=O)CNC(=O)Cn2cnc3ccccc3c2=O)CC1 | 16.5
12 | Cc1ccc(C)c(C(=O)CSc2nnnn2-c2cccnc2)c1 | -15
13 | COc1cccc(C(=O)NCCS(=O)(=O)NCCc2ccc(OC)c(OC)c2)c1 | -1.17
14 | CC1CCCC(NC(=O)COC(=O)Cc2c[nH]c3ccccc23)C1C (centres unmarked) | -14
15 | CC(C)(Cc1ccc(O)cc1)NC(=O)CC(=O)N/N=C/c1ccc(Cl)cc1 | 19.4
16 | O=c1[nH]c2ccccc2nc1N1CCOCC1 | -7.18
17 | COc1nc(NC2CCCCC2)nc(N2CCCCCC2)n1 | 4.84
18 | COc1cccc(CNC(=O)[C@H](C)NC(=O)C2CCN(S(=O)(=O)c3ccccc3)CC2)c1 | 8.44
19 | CC(=O)Nc1ccc(C(=O)NNC(=O)Cc2ccccc2)cc1 | 18.5

Row | Structure (SMILES) | hERG current change (%, negative = inhibition) at 10uM [%]
20 | Cc1ccc(NC(=O)c2cc(-c3ccco3)on2)cc1 | 4.51
21 | C=CCn1c(N)cc(=O)nc1SCC(=O)Nc1ccccc1C(N)=O | 26.2
22 | CCN(CC)CCn1c(SCC(=O)Nc2ccc(F)cc2)nc2c(sc3ccccc32)c1=O.Cl | -14.9
23 | CC1CCOC(c2coc3ccccc3c2=O)O1 (centres unmarked) | -0.768
24 | O=C(CCNS(=O)(=O)c1ccccc1C(F)(F)F)NCCCSc1ccccc1 | -18.1
25 | CCOC(=O)c1ccc(CNC(=O)C(Cc2c[nH]c3ccccc23)NC(C)=O)o1 (centres unmarked) | -1.24
26 | CCC(C)NC(=O)c1oc2ccc(S(=O)(=O)N3CCC4(CC3)OCCO4)cc2c1C (centres unmarked) | -1.87
27 | O=C(O)c1ccc(N=Cc2c(O)ccc3oc4c(c23)CCCC4)cc1 | 1.8
28 | CC(C)(C)c1cc(NS(=O)(=O)c2ccc3c(c2)OCCO3)on1 | 10.9
29 | CCOC(=O)CNC(=O)CSc1nc2cccnc2n1CC | -7.04
30 | CCc1cccc(NC(=O)C2CCCN(S(=O)(=O)c3ccc4[nH]c(=O)ccc4c3)C2)c1 (centres unmarked) | 8.32
31 | CN(Cc1cccs1)C(=O)C1CC(=O)N(Cc2ccccc2)C1 (centres unmarked) | -4.68
32 | Cc1ccc2nc(SCC(=O)N(CC(C)C)c3c(N)n(Cc4ccccc4)c(=O)[nH]c3=O)[nH]c2c1 | 11.2
33 | COc1cccc(OCC(O)CN2CCN(CCO)CC2)c1.Cl (centres unmarked) | 15.7
34 | CCN(CC)c1ccc(O)c(C=Nc2ccc(C)c(C)c2)c1 | 7.46
35 | CCc1ccc(C(=O)NNC(=O)c2cc(S(=O)(=O)N(C)C)ccc2N2CCCC2)cc1 | 1.21
36 | CC1CN(C(=O)c2scc3c2OCCO3)CC(C)O1 (centres unmarked) | 13.9
37 | Cc1ccc(N(C(C)C(=O)Nc2ccc(S(=O)(=O)N3CCOCC3)cc2)S(C)(=O)=O)cc1 (centres unmarked) | 7.56
38 | Cc1cc2oc(=O)cc(CN3CCOCC3)c2c(C)c1Cl | -6.49

Row | Structure (SMILES) | hERG current change (%, negative = inhibition) at 10uM [%]
39 | Cc1ccc(NS(=O)(=O)c2ccc3[nH]c(=O)oc3c2)cc1Cl | -0.996
40 | CCNS(=O)(=O)c1ccc(CCC(=O)N2CCN(Cc3ccccc3)CC2)cc1 | -40.7
41 | OCCOCCn1c(C(CO)Nc2nc(-c3ccc(F)cc3)cs2)nc2ccccc21 (centres unmarked) | -29.4
42 | COc1ccc2oc(C(=O)N(C)CCOc3ccc(Cl)cc3)c(C)c2c1 | -49.7
43 | CCn1nc(C(=O)OCC(=O)Nc2nc(-c3ccc(OC)cc3)cs2)c2ccccc2c1=O | 22.9
44 | CC(C)CC(=O)Nc1ncnc2c1C(=O)CC(C)(C)C2 | -0.157
45 | O=C(NCCCNC(=O)c1ccc(Cl)cc1Cl)c1ccccn1 | -2.08
46 | COc1ccccc1-n1c(SCC(=O)c2ccc(O)cc2O)nc2cc([N+](=O)[O-])ccc21 | 11.4
47 | CCOC(=O)c1cncc(C(=O)O)c1 | 10.2
48 | Cc1ccc(S(=O)(=O)c2cc3ccccc3oc2=O)cc1 | 3.76
49 | CCCn1c2ccc(C)cc2c2n[nH]c(=S)nc21 | 12.5
50 | Cl.O=C(NCCCN1CCOCC1)c1c(O)c2ccccc2[nH]c1=O | -47.9
51 | COc1ccc(S(=O)(=O)Nc2ccc3cn[nH]c3c2)cc1[N+](=O)[O-] | -3.17
52 | COc1ccc(C(OC(=O)c2c(C)noc2C)C(=O)NC2CCCC2)cc1 (centres unmarked) | -2.68
53 | COc1ccc(/C=N\N=C2/SC(CC(=O)O)C(=O)N2c2ccc(O)cc2)cc1OC (centres unmarked) | -0.927
54 | CCOC(=O)C1=C(CNCCOc2ccc(OC)cc2)NC(=O)NC1c1ccc2c(c1)OCO2 (centres unmarked) | -11.6
55 | CCc1cc2c(NCCC(=O)O)nc(C)nc2s1 | 24.2
56 | CCOc1ccccc1N1CCN(C(=S)NCc2ccco2)CC1 | -14.7
